# According to PubChem BioAssay AID686978 (National Center for Advancing Translational Sciences (NCATS), 2013):
# Several values for one entry are separate records, joined by “and”; a condition that tells them apart may be missing. Equal values may be shown once. About 64,000 (15%) of roughly 420,000 compounds were called active. Inconclusive means that the source gave no clear call. Such entries were picked first, then a sample of the others. Calls come from the whole dose curve; as a rule, active = well fitted inhibition curve with a large enough effect; inconclusive = small, poorly fitted or top-dose-only effect; inactive = flat fitted curve, though single readings scatter. A potency beside an inconclusive call is a rough fit, not a confirmed value.
# Assay: qHTS for Inhibitors of human tyrosyl-DNA phosphodiesterase 1 (TDP1): qHTS in cells in absence of CPT; note: nearly all actives have a fitted effect of over 55% in size
# Conditions: DT40 Tdp1-/- hTDP1 cells, no CPT, ATP luminescence, 48 h; series mostly up to 46.2 µM
# Outline: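 Readout: luminescence from CellTiter-Glo after 30 min in the dark at RT. Cells: DT40 Tdp1-/- with stable hTDP1, 400/well. Exposure: compounds alone, ≥48 hr, 37 °C.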
# Potency is the fitted concentration of half-maximal effect; tags give direction and shape of the fitted curve.
row,SMILES,Potency
1,Cc1nn(-c2ccccc2)nc1CNC(=O)CC(C)(C)C,inactive
2,COc1ccc2oc(=O)c(C(=O)NCc3ccc(C)cc3)cc2c1,"inconclusive: 11.6 µM [inhibitor, partial curve]"
3,O=C(Cn1ncn2c(cc3sccc32)c1=O)NCCc1ccccc1,inactive
4,CCCn1c(NC(=O)c2ccccc2)nc2ccccc21,"inconclusive: 25.9 µM [inhibitor, single point]"
5,C=CCn1c(=O)c2ccccc2n2c(SCC(=O)NCc3cccs3)nnc12,"inconclusive: 25.9 µM [inhibitor, partial curve]"
6,O=C(NC(=S)Nc1ccccn1)c1ccc([N+](=O)[O-])cc1,inactive
7,CCOC(=O)c1cc(OCc2csc(-c3ccccc3)n2)cc(C(=O)OCC)c1,inactive
8,N=C1C(c2nc3ccccc3s2)=C(O)CN1C1CCCCC1,inactive
9,Cc1ccc(C(=O)C(OC(=O)CN2C(=O)c3ccccc3C2=O)c2ccccc2)cc1C (stereo unspecified),inactive
10,CCOC(=O)c1cnc2cc(C(F)(F)F)ccc2c1Nc1cc(C)ccc1OC,"inconclusive: 18.4 µM [inhibitor, single point]"
11,CN1CCN(C(=O)c2ccc3c(=O)n(CCc4ccccc4)c(=S)[nH]c3c2)CC1,"inconclusive: 23.1 µM [inhibitor, single point]"
12,Cc1ccc(-c2nc(CCNC(=O)c3ccc(C)c(C)c3)cs2)cc1,active: 16.4 µM
13,CC(=O)NCCC(=O)Nc1ncc(S(=O)(=O)c2ccc([N+](=O)[O-])cc2)s1,inactive
14,COc1ccc(C)cc1NC(=O)c1ccc(NS(=O)(=O)c2c(C)noc2C)cc1,"inconclusive: 18.4 µM [inhibitor, single point] and inconclusive: 16.4 µM [inhibitor, partial curve, poor fit]"
15,CC(Sc1nc(N)cc(=O)[nH]1)C(=O)Nc1sc2c(c1C#N)CCCC2 (stereo unspecified),active: 2.31 µM
16,CCC(C(=O)Nc1cccc(Cl)c1C)n1nc(C)c2sc3ccccc3c2c1=O (stereo unspecified),"inconclusive: 25.9 µM [inhibitor, single point]"
17,C[C@@]12CC[C@@H](C3=C(CCC3)C1)N2c1ccccc1,"inconclusive: 18.4 µM [inhibitor, single point]"
18,O=C(CSc1nnc(-c2ccccc2F)o1)NC(=O)Cc1ccccc1,inactive
19,CC(=O)N1c2ccccc2C(=O)C1N1CCN(c2ccccc2F)CC1 (stereo unspecified),"inconclusive: 29.1 µM [inhibitor, single point]"
20,COc1ccccc1NC(=O)Cn1c(O)c(N=NC(=O)c2ccccc2O)c2ccccc21,active: 1.84 µM
21,CCCCCC(=O)NNC(=S)NC(=O)c1ccccc1[N+](=O)[O-],"inconclusive: 29.1 µM [inhibitor, single point]"
22,COc1ccccc1-c1nc2n(n1)C(c1ccccc1Cl)C(C(=O)Nc1cccnc1)=C(C)N2 (stereo unspecified),active: 20.6 µM
23,COc1ccc(N2CCN(C(=O)c3cc(-c4cccs4)nc4ccccc34)CC2)cc1,"inconclusive: 20.6 µM [inhibitor, single point]"

row,SMILES,Potency
1,COC(=O)CCSc1cc(NCCCOC(C)=O)c([N+](=O)[O-])c2nonc12,active: 5.01 µM
2,Cc1ccc(CNC(=O)COc2cc(O)c3c(c2)OC(C)(C)CC3=O)cc1,"inconclusive: 29.1 µM [inhibitor, single point]"
3,Cc1ccc(NC(=S)N(CCN(C)C)C(C)c2ccco2)cc1C (stereo unspecified),"inconclusive: 25.9 µM [inhibitor, single point]"
4,CCOc1ccc(N2C(=O)S/C(=C\c3cc(OC)c(OC)c(OC)c3)C2=O)cc1,inactive
5,CCCN(C(=O)c1cc(S(=O)(=O)N2CCN(CC)CC2)ccc1Cl)C1CCS(=O)(=O)C1 (stereo unspecified),inactive
6,CC(C)(C)OC(=O)N1CCC(c2c(C(=O)NCc3ccccc3)cnn2-c2cccc(F)c2)CC1,active: 18.4 µM
7,CN1CCN(c2ccc(CNS(=O)(=O)c3cccc(F)c3)cc2)CC1,"inconclusive: 11.6 µM [inhibitor, partial curve]"
8,Cn1c(=O)n(C)c2cc(/C=N/NC(=O)c3ccc(Cl)cc3)ccc21,"inconclusive: 29.1 µM [inhibitor, single point]"
9,CSc1ccc(CN(C)C(C)C(=O)NCC2CCCCC2)cc1 (stereo unspecified),"inconclusive: 29.1 µM [inhibitor, single point]"
10,CCN(CC)C(=O)Oc1nnc(SC(C)C)n1-c1ccc(Cl)cc1,"inconclusive: 14.6 µM [inhibitor, single point]"
11,COC(=O)C1=NNC2(c3ccc(Cl)cc3)C(=O)N(c3ccc(Cl)cc3)C(=O)C12 (stereo unspecified),inactive
12,CC(CCc1ccccc1)NC(=O)c1ccc(NC(=O)c2ccccc2)cc1 (stereo unspecified),active: 10.3 µM
13,CCOC(=O)C1=C(N)Oc2cc(C)n(CCc3ccc(OC)c(OC)c3)c(=O)c2C1c1cccnc1 (stereo unspecified),"inconclusive: 25.9 µM [inhibitor, single point]"
14,Cc1oc(-c2ccc(Cl)cc2)nc1CN1CCCC(C(=O)NCCc2ccc(Cl)cc2)C1 (stereo unspecified),active: 5.8 µM
15,O=C(COc1ccccc1C(=O)Nc1cccc(F)c1)Nc1ccc(Br)cc1,"inconclusive: 35.5 µM [inhibitor, single point]"
16,O=C(/C=C/c1cccc(OCc2ccccc2)c1)c1cccnc1,"inconclusive: 10.3 µM [inhibitor, partial curve]"
17,COCCCNC(=O)C1CCN(Cc2cc3ccccc3n2Cc2ccccc2C)CC1,"inconclusive: 23.1 µM [inhibitor, single point]"
18,O=C(/C=C/c1ccc2c(c1)OCO2)c1ccc(O)cc1O,"inconclusive: 18.4 µM [inhibitor, partial curve]"
19,CC1CCCCN1C(=O)CNCC1CCCO1 (stereo unspecified),inactive
20,CCSc1nn(CC(=O)Nc2cccc(CC)c2)c(N)c1S(=O)(=O)c1ccccc1,active: 14.6 µM
21,COc1cccc(N=C2NC(=O)/C(=C/c3cc([N+](=O)[O-])ccc3O)S2)c1,inactive
22,CCc1ccc(NC(=O)c2noc(C(C)C)c2[N+](=O)[O-])cc1,"inconclusive: 29.1 µM [inhibitor, single point]"
23,Cc1cccc2c1c1ccc3c(c1n2C)C(=O)C=CC3=O,active: 0.411 µM
